Source: PubChem BioAssay AID504332 (National Center for Advancing Translational Sciences (NCATS), 2011)
In all, about 350,000 compounds went through this assay and about 31,000 (8.9%) were called active. The shares of active, inactive and inconclusive entries below differ from those in the screen. The call rests on the fitted dose curve; in most records, active means well fitted inhibition curve with a large enough effect; inconclusive means small, poorly fitted or top-dose-only effect; inactive means no such curve, though single readings can be large or run the other way. Potencies of inconclusive entries are doubtful fits and often do not repeat.

Target: Histone-lysine N-methyltransferase EHMT2 (Homo sapiens) (UniProt Q96KQ7)
Chain of UniProt Q96KQ7 (Q96KQ7 whole entry, looked up): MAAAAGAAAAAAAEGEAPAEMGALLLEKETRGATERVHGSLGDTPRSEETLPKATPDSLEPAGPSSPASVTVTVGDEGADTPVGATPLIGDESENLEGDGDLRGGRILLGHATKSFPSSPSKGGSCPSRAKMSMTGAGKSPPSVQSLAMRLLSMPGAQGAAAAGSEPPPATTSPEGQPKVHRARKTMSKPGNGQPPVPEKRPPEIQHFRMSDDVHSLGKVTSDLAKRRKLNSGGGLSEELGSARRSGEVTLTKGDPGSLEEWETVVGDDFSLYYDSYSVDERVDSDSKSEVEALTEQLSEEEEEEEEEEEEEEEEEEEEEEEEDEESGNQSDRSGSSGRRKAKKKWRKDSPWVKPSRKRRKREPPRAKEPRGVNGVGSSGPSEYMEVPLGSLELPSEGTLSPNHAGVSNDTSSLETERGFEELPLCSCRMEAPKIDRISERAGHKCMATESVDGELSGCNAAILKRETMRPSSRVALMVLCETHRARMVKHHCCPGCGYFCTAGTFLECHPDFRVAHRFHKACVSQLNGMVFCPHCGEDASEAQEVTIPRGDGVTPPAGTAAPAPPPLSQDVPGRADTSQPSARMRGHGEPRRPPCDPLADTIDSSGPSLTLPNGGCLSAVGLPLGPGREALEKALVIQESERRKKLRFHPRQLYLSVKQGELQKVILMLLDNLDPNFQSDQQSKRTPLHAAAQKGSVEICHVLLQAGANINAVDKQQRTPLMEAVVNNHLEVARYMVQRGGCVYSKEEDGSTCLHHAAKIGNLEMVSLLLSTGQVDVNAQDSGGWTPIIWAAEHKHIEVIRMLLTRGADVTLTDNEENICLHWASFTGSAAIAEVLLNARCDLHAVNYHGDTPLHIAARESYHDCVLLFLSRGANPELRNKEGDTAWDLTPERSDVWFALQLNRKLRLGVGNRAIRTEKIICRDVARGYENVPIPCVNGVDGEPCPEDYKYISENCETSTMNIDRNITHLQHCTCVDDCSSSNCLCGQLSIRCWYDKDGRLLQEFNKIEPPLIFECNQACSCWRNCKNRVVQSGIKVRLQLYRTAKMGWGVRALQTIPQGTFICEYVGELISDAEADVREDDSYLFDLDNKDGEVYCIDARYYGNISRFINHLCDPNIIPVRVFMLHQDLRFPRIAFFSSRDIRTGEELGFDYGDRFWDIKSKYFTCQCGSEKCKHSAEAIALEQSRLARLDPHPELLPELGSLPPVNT
Experiment: qHTS Assay for Inhibitors of Histone Lysine Methyltransferase G9a; further: nearly all actives have a fitted effect of over 75% in size
Conditions: G9a H3K9 monomethylation, AlphaScreen, 2 h; activity, negative = inhibition: at 59 µM (top of the series) unless noted
Summary of the method: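 Signal arises when biotinylated H3K9 peptide, once monomethylated, bridges streptavidin donor and antibody-captured acceptor beads. Enzyme at 20 nM was preincubated 15 min with test compounds; peptide 500 nM and SAM 20 uM then reacted for 2 h.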
On the % scale 0 is the no-effect control and ±100 the full control effect; potency means the concentration at half of the fitted maximal effect; tags describe the fitted curve by direction and shape.

Row | SMILES | activity, negative = inhibition | Potency
1 | OCCNc1nc(Nc2ccc(O)cc2)nc2ccccc12 | inconclusive: -79% [inhibitor] | –
2 | CCN(C(=O)CSc1nnc(-c2ccncc2)n1C)C1CCS(=O)(=O)C1 (centres undefined) | – | inconclusive: 3.98 µM [inhibitor, full curve, poor fit]
3 | NC(=O)c1ccc(SCC(=O)OCC(=O)NC2CCCCCCC2)c([N+](=O)[O-])c1 | – | inconclusive: 4.47 µM [inhibitor, partial curve, poor fit]
4 | O=C(c1ccc2c(c1)N(Cc1ccccc1F)C(=O)c1ccccc1S2=O)N1CCN(c2ccccc2)CC1 (centres undefined) | – | inactive
5 | O=S(=O)(Nc1nc2ccc(Cl)cc2s1)c1cccs1 | – | inconclusive: 89.1 µM [inhibitor, single point]
6 | Cc1cccc(N2CC(C)Cn3c2nc2c3c(=O)n(CC(=O)OCc3ccccc3)c(=O)n2C)c1 (centres undefined) | – | inconclusive: 39.8 µM [inhibitor, partial curve]
7 | COc1ccc(OC)c(-c2nnc(NC(=O)C(C)Sc3nncn3C)s2)c1 (centres undefined) | – | active: 31.6 µM
8 | C=CCSc1nncn1/N=C/c1ccc(OC)cc1 | – | inconclusive: 89.1 µM [inhibitor, partial curve, poor fit]
9 | O=C(N/N=C\c1ccc(CN(Cc2ccc(Cl)cc2)S(=O)(=O)c2ccccc2)o1)C(=O)Nc1ccc(F)cc1 | – | inconclusive: 31.6 µM [inhibitor, single point]
10 | CCN(CC)S(=O)(=O)c1cc(C(=O)Nc2cc(S(=O)(=O)N3CCOCC3)ccc2N2CCCC2)ccc1F | – | inconclusive: 44.7 µM [inhibitor, partial curve]
11 | O=C(O)CCc1nc(-c2ccccc2)no1 | – | inactive
12 | Cc1ccc(-c2noc(CN3C(C)CCCC3C)n2)cc1 (centres undefined) | – | inconclusive: 0.562 µM [inhibitor, full curve, poor fit]
13 | O=[N+]([O-])c1cnc2ccccc2c1 | – | inconclusive: 100 µM [inhibitor, single point]
14 | COc1ccccc1OCCCCCCN1CCOCC1 | – | active: 12.6 µM
15 | CC(C)OC(=O)CSc1nnc(CNc2ccc(Cl)cc2)n1Cc1ccccc1 | – | inconclusive: 39.8 µM [inhibitor, single point]
16 | CCC(Sc1nnc(-c2ccc(C)c(Cl)c2)n1CC)C(=O)Nc1nccs1 (centres undefined) | – | inconclusive: 25.1 µM [inhibitor, single point]
17 | Cc1c(CN2CC[C@@H](N3CCN(c4ccccn4)CC3)[C@H](O)C2)[nH]c2ccc(F)cc12 | – | inconclusive: 89.1 µM [inhibitor, single point]
18 | CC(C)(C)n1nc2c(c1NC(=O)c1cccc(Cl)c1)CS(=O)(=O)C2 | – | inactive
19 | O=C(NCCc1csc(-c2cccc(F)c2)n1)c1cccs1 | – | inactive
20 | Cc1c(C(=O)O)cccc1-c1ccc(/C=N/n2cnnc2)o1 | – | active: 35.5 µM
21 | O=C(CC12CC3CC(CC(Br)(C3)C1)C2)NC1CCCC1 | – | inconclusive: 89.1 µM [inhibitor, single point]
22 | CC(NC(=O)C1CCN(C(=O)c2ccc(F)cc2)CC1)c1ccc(-n2ccnc2)cc1 (centres undefined) | – | inconclusive: 35.5 µM [inhibitor, single point]

Row | SMILES | activity, negative = inhibition | Potency
23 | N#Cc1ccc(CN2CCCC3(CCN(C(=O)c4cccc(F)c4)CC3)C2)cc1 | inactive: 5.63% [at 12.7 µM] | –
24 | CCN(CC)CCOc1nnc(-c2ccc(C)cc2)c2ccccc12 | – | inconclusive: 89.1 µM [inhibitor, partial curve, poor fit]
25 | COc1ccc(-c2[nH]nc3c2C(c2ccc(OC(=O)N4CCOCC4)cc2)C(C#N)=C(N)O3)cc1 (centres undefined) | – | inconclusive: 35.5 µM [inhibitor, single point]
26 | CCc1nc2c(cnn2-c2ccc(F)cc2)c(=O)n1-c1ccc(N2CCC(C)CC2)cc1 | – | inconclusive: 89.1 µM [inhibitor, single point]
27 | COc1ccc(C)cc1S(=O)(=O)N1CCN(S(=O)(=O)c2cc(C)ccc2OC)CC1 | – | inconclusive: 79.4 µM [inhibitor, partial curve]
28 | CCOc1ccc(-n2c(Cc3cc(=O)[nH]c(=O)[nH]3)nnc2SCC)cc1 | inconclusive: -59.1% [inhibitor] | –
29 | Cc1cc2ccccn2c1C(=O)c1ccc([N+](=O)[O-])cc1[N+](=O)[O-] | – | inconclusive: 25.1 µM [inhibitor, full curve]
30 | N#C/C(=C\c1ccc(Cl)cc1)c1nc2ccccc2[nH]1 | – | inactive
31 | COC(=O)c1cccc(NC(=O)CSc2nc3cccnc3n2C)c1 | – | inactive
32 | O=C(COc1ccc(Br)cc1F)N1CCN(c2ncccn2)CC1 | – | inactive
33 | COc1cccc(OCCNC(=O)c2ccccc2Sc2ccccc2C#N)c1 | – | inconclusive: 79.4 µM [inhibitor, partial curve, poor fit]
34 | CC1=CN2C(=N)/C(=C/c3ccc([N+](=O)[O-])o3)C(=O)N=C2S1 | – | inconclusive: 31.6 µM [inhibitor, single point]
35 | COC(=O)CNC(=O)C1(C)C=CCN1C(=O)c1ccccc1 (centres undefined) | – | inconclusive: 79.4 µM [inhibitor, single point]
36 | Cn1c(CNS(=O)(=O)c2ccc(Br)cc2)n[nH]c1=S | – | active: 22.4 µM
37 | COC(=O)CSC1=C(C#N)C(c2ccc(Cl)cc2)C(C(=O)OC)C(=O)N1 (centres undefined) | – | active: 44.7 µM
38 | COc1cc(/C=N/NS(=O)(=O)c2ccc3ccccc3c2)ccc1OCCN1CCOCC1 | – | inconclusive: 28.2 µM [inhibitor, single point]
39 | CNC(=O)N/N=C(\N)c1ccccn1 | – | active: 10 µM
40 | O=S(=O)(CCSc1ccc(C(F)(F)F)cn1)c1ccc(Cl)cc1 | – | inactive
41 | CN(C(=O)CSc1nc2c(c(=O)[nH]1)CCCC2)c1ccccc1 | – | inconclusive: 22.4 µM [inhibitor, partial curve, poor fit]
42 | CCOC(=O)c1ccc(N2CSC3=C(C#N)C(c4cccs4)CC(=O)N3C2)cc1 (centres undefined) | – | active: 5.62 µM
43 | COc1ccccc1NC(=O)CSc1oc(-c2cccs2)nc1S(=O)(=O)c1ccc(Br)cc1 | – | inconclusive: 31.6 µM [inhibitor, partial curve, poor fit]
44 | Cc1ccc2sc(-c3ccc(NC(=O)CCN4C(=O)c5ccccc5C4=O)cc3)nc2c1 | – | inactive
